The full ranking holds about 33,000 sequences; the median of “E-score (-0.5 to 0.5)” is about -0.01, and the highest 2% start at about 0.26. This is one part of the list.
These sequences were tested against Ste12 (UniProt P13574) (assay: PBM E-score (8-mer binding enrichment) (E-score (-0.5 to 0.5)); higher = stronger / more preferred TF binding; most listed sequences are background and not binding sites). Conditions: protein concentration: 200 nM; construct: GST-DNA-binding domain.
Experimental: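 Universal 'all 10-mer' protein binding microarrays (Agilent AMADID 015681) probed with GST-tagged S. cerevisiae TFs (full-length or DBD) made by in vitro transcription/translation (PURExpress), about 100-200 nM. Bound TF was detected with fluorescent anti-GST. Each ungapped 8-mer (which stands for itself and its reverse complement) is scored by the PBM enrichment score (E-score), a modified Wilcoxon-Mann-Whitney statistic from -0.5 to +0.5, computed with the Universal PBM Analysis Suite. Scale: above 0.35 generally sequence-specific binding.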

| Sequence | PBM E-score |
| --- | --- |
| CCCAAGCA | 0.0648 |
| CATACAGC | -0.114 |
| GAAGCTCC | -0.14 |
| CTCCATAC | 0.171 |
| ACACTAGG | 0.0304 |
| GACGCTTA | -0.0976 |
| GCGCGTGA | 0.0934 |
| AAAACCAC | 0.201 |
| GGGTACAC | -0.192 |
| CCTCTCTA | -0.314 |
| CTCTTGTA | 0.0528 |
| GGCACGGA | -0.146 |
| CCCCCGAA | -0.217 |
| AGCTGGCC | -0.0987 |
| GATAGGGC | -0.265 |
| GCGATTTA | 0.0399 |
| AAAGGAAT | 0.108 |
| CATCCTAC | -0.105 |
| AGCCACTG | -0.0733 |
| GAATCTAA | 0.0896 |
| GAGCCTCA | 0.00214 |
| GGTTGCAC | -0.109 |
| TAGTCACA | 0.037 |
| CTAAGGAG | -0.207 |
| CCCGTATC | 0.0711 |

| Sequence | PBM E-score |
| --- | --- |
| GCCGGAAA | 0.0458 |
| CCGTTGTC | 0.0456 |
| AAAATTGG | 0.173 |
| GGGCTCGA | 0.0483 |
| ACGGCTAT | -0.135 |
| CACGGCGC | -0.0235 |
| AACACAGA | 0.0627 |
| GAATTAAC | 0.00892 |
| CAGTAGAC | -0.0528 |
| GGTGGTTA | 0.0805 |
| CTGGTTGC | 0.251 |
| TACTCATA | -0.0743 |
| ATCGCCAC | -0.0254 |
| AGGATTAC | 0.037 |
| CTTCCACA | -0.0803 |
| CCTAAAAC | 0.236 |
| ACGAGCTA | -0.313 |
| GAAATCCC | 0.027 |
| GGTCTGGA | -0.115 |
| ATGTTAAG | 0.0812 |
| GAGCACTC | -0.0267 |
| GGACACCA | 0.0136 |
| CTTGATAC | 0.0702 |
| GCCATAAC | -0.164 |
| AAGCGCAC | -0.18 |

| Sequence | PBM E-score |
| --- | --- |
| CAGGCGCC | 0.116 |
| CTGAGCCA | -0.00032 |
| TGAAAGCA | 0.145 |
| ACGATCAG | -0.054 |
| GCTCCAAC | 0.0307 |
| GTAACCTA | 0.164 |
| AACATCTC | -0.0931 |
| AAACTTTG | 0.217 |
| GGCGTCAC | 0.0698 |
| GGGCCCTA | -0.0582 |
| AACGAAAC | 0.314 |
| CAAGTAAC | 0.045 |
| CGAGGCTA | -0.0806 |
| CCCATTGA | 0.0714 |
| GCCATCAC | -0.0789 |
| ATGTATGA | 0.138 |
| GCACTCTA | -0.112 |
| CAACTAAA | 0.00909 |
| AACGAGTT | -0.0971 |
| AAGTGTCC | -0.236 |
| AGAATACT | -0.0293 |
| AACTAGTA | 0.0578 |
| CAACCAGA | -0.0395 |
| AGCCTTGG | -0.185 |
| CCCAGAAG | -0.0684 |

| Sequence | PBM E-score |
| --- | --- |
| GGCAACTA | -0.139 |
| ACGGGTAT | 0.13 |
| CAACATCG | -0.00967 |
| CGGATCAG | 0.0297 |
| GATAAACA | 0.096 |
| ACATAGGG | -0.137 |
| GCTTTACA | -0.00619 |
| ATCTTTGC | 0.19 |
| ACGTTTAA | 0.0563 |
| CTCGTTAA | -0.0602 |
| AATTCGGA | 0.126 |
| CAACGTTG | 0.0287 |
| GGCGTCCA | -0.155 |
| GCAAACAA | 0.146 |
| AGTCAAAC | -0.121 |
| GCTCCGCA | -0.133 |
| ATGCATTC | 0.0417 |
| AATGACCA | 0.0927 |
| AGTTCGAC | -0.147 |
| CGTGCACA | -0.238 |
| TCGGAAAA | 0.275 |
| GTGCTAAA | 0.00531 |
| ACCACTAC | -0.00992 |
| CATAGCCG | -0.039 |
| CCCTCGAA | -0.111 |

| Sequence | PBM E-score |
| --- | --- |
| GCAACTTA | 0.0563 |
| ACGGGATA | 0.125 |
| ATAAGGTC | 0.0906 |
| AGTACTTA | -0.0601 |
| CCAGGGCA | -0.103 |
| CCCAGGAG | -0.169 |
| AGCGAACT | 0.0273 |
| GACATATC | 0.144 |
| CAGAACAA | 0.238 |
| CCTCGAGC | 0.125 |
| AGCCAACG | -0.0264 |
| AGTTAACA | 0.0664 |
| GTAAACAC | 0.122 |
| CACTTTCA | 0.0472 |
| TATGAATA | 0.069 |
| AGTACCTA | -0.215 |
| GCATGACC | -0.111 |
| GACCGTCA | -0.198 |
| AACAGCAT | 0.0947 |
| ATAGGGCA | -0.109 |
| CCATACCG | 0.123 |
| GAAACTGC | 0.215 |
| CGAGTTCC | -0.135 |
| TAATCATA | 0.0727 |
| CCCCATTC | -0.0773 |

| Sequence | PBM E-score |
| --- | --- |
| ATGCCACA | 0.128 |
| GGAGGTAC | -0.0965 |
| AAGGCCAC | -0.13 |
| AGGAGCGG | -0.258 |
| CCACCAGC | 0.0215 |
| GACGCCGA | 0.15 |
| GCCGGGAC | -0.131 |
| ACAATACA | 0.0363 |
| AGGGTGCG | -0.0329 |
| CGGGTCCA | -0.238 |
| CCGCGCGG | 0.321 |
| CACAAATA | 0.168 |
| GCGTCGCA | 0.0271 |
| ACCAATAC | 0.099 |
| TTAACAAA | 0.246 |
| CGATACAA | 0.0267 |
| AGAGAGCA | -0.111 |
| ACTTATGC | -0.0582 |
| GAGATATC | 0.0245 |
| CGCCGTAG | -0.146 |
| GGCGAACC | -0.0904 |
| CAAAACTC | 0.123 |
| TCCCGCGA | 0.0701 |
| TGATGACA | 0.0917 |
| GCCCGCTA | -0.161 |

| Sequence | PBM E-score |
| --- | --- |
| CGAATTAC | 0.0656 |
| CGACGCAA | -0.0452 |
| TCGCCGCA | -0.122 |
| ATAGCAAC | -0.0859 |
| AAGAGGGA | -0.0411 |
| AGAGACGG | 0.0373 |
| AGGTGTGA | 0.146 |
| AGTCTGTC | -0.138 |
| ACTAGTGG | -0.00611 |
| GCGGTCAC | -0.0712 |
| AGGTCACA | 0.0484 |
| AATGACAA | 0.034 |
| CAGGGCGG | -0.0841 |
| AACAACGA | -0.0132 |
| AGGACCTA | -0.0686 |
| TAGGCGAA | 0.0575 |
| AGCGATAG | -0.272 |
| CCATGTTA | 0.0685 |
| CCTCGTAA | 0.0987 |
| CGCAGGCG | -0.138 |
| ACGAGACC | 0.0387 |
| CCAGTTTA | 0.118 |
| AACTTCTA | -0.154 |
| TAATACCA | 0.122 |
| AGCGTCGG | 0.00249 |

| Sequence | PBM E-score |
| --- | --- |
| ACAGAGAG | -0.158 |
| AACCAATT | 0.162 |
| AAGCTAGT | 6e-05 |
| GCTGTCCA | 0.0328 |
| CTTTGAAA | 0.318 |
| TCAGTCCA | -0.266 |
| CGCTGCGC | -0.141 |
| AAGTCGAA | -0.145 |
| ATCAATAA | 0.114 |
| CGTCAAAC | 0.135 |
| AACCGCTA | -0.0725 |
| AAACCTTT | -0.0522 |
| AAAGATCT | -0.0916 |
| TACTTATA | 0.137 |
| CATGTCGA | -0.167 |
| TAATTTGA | 0.07 |
| ATACGTTG | -0.0291 |
| CGCATCAC | 0.0993 |
| ATCTCGCC | -0.335 |
| TCCGGCCA | -0.177 |
| CGGCGGCA | -0.0641 |
| CGGCAGTC | 0.0152 |
| TATAGCCA | -0.0285 |
| CCAGTTCC | 0.0243 |
| GCCACGCA | -0.0632 |

| Sequence | PBM E-score |
| --- | --- |
| AAGTGTGA | -0.0221 |
| ATCTGGAA | 0.208 |
| CCGTACAC | -0.0283 |
| CAAGGGGG | -0.0618 |
| ATAGTAAT | 0.107 |
| AGACCAGG | -0.147 |
| AGTTACAA | 0.157 |
| TCCTTACA | -0.0135 |
| CGTCCTAC | -0.0953 |
| CCCATACC | 0.147 |
| GAACATCC | 0.0627 |
| AGCGCAAA | 0.0763 |
| AACTAGAT | 0.127 |
| GACGGCGC | 0.0327 |
| GGCATTCA | 0.0626 |
| GCAGTGAC | -0.0517 |
| GTGCTAGA | -0.115 |
| GGAAAAAC | 0.322 |
| TCTATGCA | -0.0611 |

— the supplement of paper PMC3334620
